Values marked as one replicate rest on one cluster of the flow cell; about a third of the high ones do not repeat.
Test system: ATP
Test: switch fluorescence ratio, 500 uM ATP over buffer (Cy3 cluster intensity, sum of 5 cycles each) (fold (ratio)); higher = stronger signal-on switching upon ATP binding; sequences stand for … in TCGTCGGCAGCGTCAGATGTGTATAAGAGACAGTTTTTTTTTTTTTTTTTTTTTTTTT…TC
Conditions: aptamer strand: ATP DNA aptamer (quencher-CACCTGGGGGAGTATTGCGGAGGAAGG + anchor), 100 nM annealed; ATP concentration: 500 uM; one replicate
How it was run: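 For every switch-domain sequence, the fluorescence ratio is the mean of per-cluster values, each being summed target-cycle Cy3 intensity over summed buffer-cycle Cy3 intensity. Clusters outside 100-1000 RFU were excluded. On a modified Illumina MiSeq flow-cell, the Cy3-labelled switching-strand clusters were annealed to 100 nM quencher-labelled ATP aptamer, imaged in selection buffer and then after 15 min with 500 uM ATP at 22 °C. Five such cycles were run, with NaOH stripping and re-annealing between them.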
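Further: ATP exposure 15 min at 22 °C before imaging.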

ACTAGGGATT
switch fluorescence ratio: 1.07

ATGAACAGTC
switch fluorescence ratio: 0.979

ATATTTGCT
switch fluorescence ratio: 1.02

AAGCATTTGG
switch fluorescence ratio: 1.03

ATACGGAATG
switch fluorescence ratio: 1.09

TATAGAAAAA
switch fluorescence ratio: 0.901

TGGGTAGAT
switch fluorescence ratio: 0.975

AGGGATTAAG
switch fluorescence ratio: 0.97

GCAAGTATTT
switch fluorescence ratio: 0.938

CGTCCTACGG
switch fluorescence ratio: 1.02

ACGAGTGGAA
switch fluorescence ratio: 1.05

AACGGTTT
switch fluorescence ratio: 0.971

GAGGTCGACA
switch fluorescence ratio: 1.06

CGGAATTGGA
switch fluorescence ratio: 1.03

GCTGCTAGAA
switch fluorescence ratio: 1.02

CCTATTTAAG
switch fluorescence ratio: 0.983

GAGAACATCA
switch fluorescence ratio: 1.01

TAGGTGGCCA
switch fluorescence ratio: 0.992

AATGGGTG
switch fluorescence ratio: 1.08

AGTGCATGGG
switch fluorescence ratio: 0.984

TTAGTGTTAG
switch fluorescence ratio: 1

AGTCCACGAA
switch fluorescence ratio: 1

TATTGACTTG
switch fluorescence ratio: 1.05

TCTGGTACCT
switch fluorescence ratio: 1.08

TGATTAAGGC
switch fluorescence ratio: 0.949

AGGGAGCCTT
switch fluorescence ratio: 0.993

GAAAATACC
switch fluorescence ratio: 1.49

GGTATTCTTA
switch fluorescence ratio: 0.986

ATGTCAGGTC
switch fluorescence ratio: 0.985

CAGGGCTAGC
switch fluorescence ratio: 1.08

CATAGGGGTC
switch fluorescence ratio: 0.944

CTCCCGGTTT
switch fluorescence ratio: 1.07

TATTATCGCG
switch fluorescence ratio: 1.01

TCATTCGACG
switch fluorescence ratio: 1.02

TTTTAAAGAC
switch fluorescence ratio: 0.976

CTGACGCGCA
switch fluorescence ratio: 2.17

GGGCTTGGCA
switch fluorescence ratio: 1

GCATAGATTT
switch fluorescence ratio: 0.988

CATGTCTGGC
switch fluorescence ratio: 0.954

CTGCTCAAGC
switch fluorescence ratio: 1.06

ATGAATTCGA
switch fluorescence ratio: 0.992

AGCAGGCGTG
switch fluorescence ratio: 1.03

CAACTGTAGT
switch fluorescence ratio: 1.01

AGTGTCAAGC
switch fluorescence ratio: 1.04

GCGAGGCTGT
switch fluorescence ratio: 1.11

CATGTTGCCT
switch fluorescence ratio: 0.981

CTATGACCCG
switch fluorescence ratio: 1.03

ACAATTCGGC
switch fluorescence ratio: 0.928

TTAAAAAGTC
switch fluorescence ratio: 0.964

ATAAAGTCTA
switch fluorescence ratio: 1.01

CGAGGACTAA
switch fluorescence ratio: 1.01

CCCCTGGAAG
switch fluorescence ratio: 1.04

GTGGCCTCAC
switch fluorescence ratio: 0.982

ATAGATGAAA
switch fluorescence ratio: 0.954

CAGTGGGTTG
switch fluorescence ratio: 0.983

TCTTAGGTGT
switch fluorescence ratio: 1.04

GGTGATGGTA
switch fluorescence ratio: 0.997

AAAACTGGTG
switch fluorescence ratio: 1.2

ATTTGATGAA
switch fluorescence ratio: 0.978

CGGGTGTAGA
switch fluorescence ratio: 1.02

TTTTGGATAG
switch fluorescence ratio: 0.98

GAGAAATCTA
switch fluorescence ratio: 1.01

CAAGGATTG
switch fluorescence ratio: 0.981

CACATGGTTT
switch fluorescence ratio: 0.943

GTATTAGTCT
switch fluorescence ratio: 1.07

GACCGACTAG
switch fluorescence ratio: 1.12

ATGAAATCGT
switch fluorescence ratio: 1.04

ACGAGATACA
switch fluorescence ratio: 1.14

AGGAGCAATG
switch fluorescence ratio: 3.28

GCGGATATCC
switch fluorescence ratio: 1.09

AGATCACTTT
switch fluorescence ratio: 1.02

TTTCGTCGCT
switch fluorescence ratio: 1.16

CTAATTAGGA
switch fluorescence ratio: 0.979

GGTCTATGCC
switch fluorescence ratio: 1.01

AAAATGCTCA
switch fluorescence ratio: 1.06

GAGTAGGTTG
switch fluorescence ratio: 1

TAATGATC
switch fluorescence ratio: 1.04

ACGTACAGCG
switch fluorescence ratio: 1.37

GGCTTAGGC
switch fluorescence ratio: 0.95

AGTTGACGGT
switch fluorescence ratio: 1.03

AGCACTAGC
switch fluorescence ratio: 1.01

GGTAAGGCAA
switch fluorescence ratio: 1.08

GGTATTTAAC
switch fluorescence ratio: 1.02

TGAGCCGGGG
switch fluorescence ratio: 1.01

TTAATGAGAT
switch fluorescence ratio: 0.994

GACAAGACAG
switch fluorescence ratio: 1.02

TCCAACATAA
switch fluorescence ratio: 1.02

GTGGCATAAT
switch fluorescence ratio: 1.03

AGATGCTGGG
switch fluorescence ratio: 0.943

CAGGCGGGC
switch fluorescence ratio: 1.02

TCATGGAGGG
switch fluorescence ratio: 0.975

ATAGGGTTCG
switch fluorescence ratio: 1

CCAACGTTAC
switch fluorescence ratio: 1.77

AGTGATCTAA
switch fluorescence ratio: 1.01

TAATTTTACC
switch fluorescence ratio: 1.08

GGTAGTTATG
switch fluorescence ratio: 0.965

CATACGAAAC
switch fluorescence ratio: 1.29

CATTGGTGTA
switch fluorescence ratio: 1.01

TCTGCGTCC
switch fluorescence ratio: 1.1

TCTTTTCCAT
switch fluorescence ratio: 0.979

CGCTCATCGT
switch fluorescence ratio: 1.01

ATTGCTTAAA
switch fluorescence ratio: 1.03

GCAGTTGCG
switch fluorescence ratio: 1.03

TAGCTTTCAC
switch fluorescence ratio: 1.05

ATTGGGCCGG
switch fluorescence ratio: 1.04

CGTGGCCCGA
switch fluorescence ratio: 0.935

CCCGCCCACT
switch fluorescence ratio: 1.67

CTAGGGAGCG
switch fluorescence ratio: 0.953

TATCGCTTTT
switch fluorescence ratio: 1.02

TCAACCCCC
switch fluorescence ratio: 1.18

GCGCGAGTCG
switch fluorescence ratio: 1.02

GGTGGCCAA
switch fluorescence ratio: 0.952

TTCAACAGCA
switch fluorescence ratio: 1.06

AAGCCCACGA
switch fluorescence ratio: 1.05

ATCAGGGC
switch fluorescence ratio: 1.06

ACGAGTCGGA
switch fluorescence ratio: 1.03

AACGCAGT
switch fluorescence ratio: 0.995

CAGTAGGAAG
switch fluorescence ratio: 0.98

GAATCGAGTC
switch fluorescence ratio: 0.979

AAACACTTCG
switch fluorescence ratio: 1.12

ACTTACGTGG
switch fluorescence ratio: 1.25

ATGCATCCAA
switch fluorescence ratio: 1.03

CGAGGACACT
switch fluorescence ratio: 0.979

AACAGGTCAG
switch fluorescence ratio: 0.995

ATTTCACAGG
switch fluorescence ratio: 1.15

ATATTGGGG
switch fluorescence ratio: 0.986

GGTCGGCTGA
switch fluorescence ratio: 0.967

AGTGCCCTAA
switch fluorescence ratio: 1.06

AACGAATGAG
switch fluorescence ratio: 0.983

AGTTGAGAAT
switch fluorescence ratio: 0.975

ACCTAATTCT
switch fluorescence ratio: 1.02

TAGTTCGACG
switch fluorescence ratio: 0.972

TAGTCGCTC
switch fluorescence ratio: 0.99

CCTCCAAGCT
switch fluorescence ratio: 4.19

GTAATTTGGA
switch fluorescence ratio: 0.977

AACGTTTAC
switch fluorescence ratio: 1.16

GAAAGTAGAA
switch fluorescence ratio: 0.954

TGACGTTAGG
switch fluorescence ratio: 0.959

TCTCTAGAG
switch fluorescence ratio: 0.972

TGTTTTTACG
switch fluorescence ratio: 0.941

AGCATATTTA
switch fluorescence ratio: 0.993

TCGGCTATTC
switch fluorescence ratio: 1.46

AGGTCATAGC
switch fluorescence ratio: 0.976

TATTCGTGAA
switch fluorescence ratio: 1.03

CATATATGTT
switch fluorescence ratio: 0.996

TTTTACCTTA
switch fluorescence ratio: 1.06

GCAGCCCGC
switch fluorescence ratio: 1.04

ACTACATATT
switch fluorescence ratio: 1.06

GACTCCAAGT
switch fluorescence ratio: 0.999

GAGAGGAGGA
switch fluorescence ratio: 1.07

AATGTTTTAG
switch fluorescence ratio: 0.999

GCGAGGTCAG
switch fluorescence ratio: 0.971

GCAATTTCAA
switch fluorescence ratio: 1.04

GAACCAGGCT
switch fluorescence ratio: 0.939

GTTTCGTGCA
switch fluorescence ratio: 1.03

AAAGTGGTG
switch fluorescence ratio: 0.979

TCCTGATCCT
switch fluorescence ratio: 1.05

GCCTGCCCAA
switch fluorescence ratio: 1.28

GGGAACCAGA
switch fluorescence ratio: 1.04

AATTAGAGTG
switch fluorescence ratio: 1

GGTATTCCTG
switch fluorescence ratio: 1.05

TTGATGGACT
switch fluorescence ratio: 1.01

TAAGGTTTAC
switch fluorescence ratio: 0.99

TCCGAGTGTA
switch fluorescence ratio: 1.01

GAGTAAGTGT
switch fluorescence ratio: 0.987

AGGGTAGGAC
switch fluorescence ratio: 1

CAAAGTAGTA
switch fluorescence ratio: 0.977

TGCTGAAGTA
switch fluorescence ratio: 1.03

GGCCCACTGG
switch fluorescence ratio: 1.06

AGGCATACTT
switch fluorescence ratio: 1.09

ATTGCAACGG
switch fluorescence ratio: 1.02

ACGACTTAGT
switch fluorescence ratio: 1.01

AACTCGCGGG
switch fluorescence ratio: 0.995

GTACGTATGG
switch fluorescence ratio: 1.13

GTTCCATAT
switch fluorescence ratio: 1.03

CCGTTTAATA
switch fluorescence ratio: 1.25

CTCTGGCGC
switch fluorescence ratio: 1.14

TGCGTTTCTA
switch fluorescence ratio: 0.969

TTCAAATTTG
switch fluorescence ratio: 1.01

AGGGAATTGC
switch fluorescence ratio: 1.01

AAATTCATGA
switch fluorescence ratio: 0.985

AGTTAAATAT
switch fluorescence ratio: 1.01

TTTATCGCCA
switch fluorescence ratio: 1.02

ATCTCTGGGA
switch fluorescence ratio: 1.05

GGGGTAGTC
switch fluorescence ratio: 0.948

GGTGCGGCCG
switch fluorescence ratio: 1.02

AATCTGTTAC
switch fluorescence ratio: 1.03

ACCGCGCTTA
switch fluorescence ratio: 1.14

TTTAAGGTTC
switch fluorescence ratio: 1.35

GTAGTGTGTT
switch fluorescence ratio: 0.979

CCAACGCGGA
switch fluorescence ratio: 3.12

ACGACCGGGG
switch fluorescence ratio: 1.18

TTTTCCCCGA
switch fluorescence ratio: 1.22

TAGCTATTCG
switch fluorescence ratio: 0.974

CTGGTGGTCT
switch fluorescence ratio: 1.03

GCAGGGGCGC
switch fluorescence ratio: 1.11

ATTAGCGGAA
switch fluorescence ratio: 0.991

TACTCCCTTT
switch fluorescence ratio: 1.05

TTCGTGACAG
switch fluorescence ratio: 0.992

TTCGTCAT
switch fluorescence ratio: 1.37

GGGCCAAGGC
switch fluorescence ratio: 0.997

From the supplement of paper PMC10126150
